We go through 10 molecules from patent US20240076403A1 (SIMCERE ZAIMING PHARMACEUTICAL, published 2024).

Assay [1] deals with T1, human HER2-His protein (Acro, Cat. No. HE2-H5225) (human, UniProt P04626 part only).
T1 construct: also called human HER2 protein; recombinant human HER2-His
Kind of assay: ELISA, 1 nM.

Assay [2] addresses T1, human HER2-His protein (Acro, Cat. No. …). Kind of assay: ELISA, 10 nM.
Assay [3] shares this target. Kind of assay: ELISA, 0.1 nM.
For assay [4] the target is unchanged. In words: ELISA, 100 nM.
The target is the same in assay [5]. Kind of assay: ELISA, 0.01 nM.
Assay [6] has the same target. In words: ELISA, 0.001 nM.
Assay [7] has the same target. Kind of assay: ELISA, 0.0001 nM.
Assay [8] has as its target T2, human HER2 protein on cells (SK-BR-3 endogenous; CHO-K1-human HER2 recombinant) (human, UniProt P04626).
T2 construct: also called human HER2-CHO-K1 cells
Kind of assay: FACS on SK-BR-3 cells.

Assay [9] addresses T2, human HER2 protein on cells (SK-BR-3 …). In words: FACS on CHO-K1-human HER2 cells.

B1: NB147-14 VHH-hFc (Fc fusion)
chain: QVQLVESGGGLVRPGGSLRLSCVLSGRTFSDYAMRWFRQAPGKEREFVASINWSGTHTDYADSVKGRFTISRDNAKKTVYLQMHSLTPTDTAVYYCTFGWGPQLPGTDYWGQGTQVTVAP[human IgG1 Fc with changes not written out]
On to B1, for which the OD450 came to 3 in assay [1]; 3.34 in [2]; 1.05 in [3]; 3.4 in assay [4]; 0.14 in assay [5]; 0.06 in assay [6]. In addition, the OD450 in [7] amounted to 0.06. In addition, the concentration giving a half-maximal response (EC50) in [8] came out at 2.25 nM; in assay [9], 0.59 nM. Besides, the “Max MFI” value in assay [8] was 7290; in assay [9] it was 1300.

B2: NB147-66 VHH-hFc (Fc fusion)
chain: QLQLVESGGGLVHTGGSLRLSCAASGSTLDYHAIGWFRQAPGKEREGVSCITSSGGRTNYADSVKGRFTVSRDDAKNTVYLQMNSLKPEDTAVYYCAAVIYDSAWICNLLAGYEYRYWGQGTQVTVSS[human IgG1 Fc with changes not written out]
As to B2, the OD450 in assay [1] came to 2.28; in [2], 2.56; in [3], 0.85; in [4] it was 2.94; in assay [5], 0.15; in [6] it was 0.06. The molecule also came in with an OD450 in [7] of 0.05. Further, the EC50 stood at 6.71 nM in assay [8] and 1.97 nM in assay [9]. In addition, the “Max MFI” value amounted to 5890 in assay [8] and 1300 in assay [9].

B3: NB146-125 VHH-hFc (Fc fusion)
chain: EVQLVESGGGLVQAGGSLTLSCVASETIFRRNAMAWYRQAPGQQRELVASIRRGAFTYYPNSMKGRFTISRDDAKNTVFLQMNSLKPEDTGVYYCRSLNDDYWGQGTQVTVSS[human IgG1 Fc with changes not written out]
On to B3, for which the OD450 came out at 2.17 in assay [1]; 2.56 in assay [2]; 0.58 in [3]; 3.14 in assay [4]; 0.11 in [5]; 0.11 in [6]. Moreover, the OD450 in assay [7] was found to be 0.06. Further, the figures for the EC50 in assay [8] and in assay [9] were 1.97 nM and 0.8 nM, respectively. The “Max MFI” value in assay [8] was found to be 7290; in [9], 1480.

B4: NB147-83 VHH-hFc (Fc fusion)
chain: QLQLVESGGGLVQPGGSLTLSCAASGFPASHYYAIRWFRQAPGKERDGIACISSYDGSTNYADSVKGRFTISNDGAKKTVYLHMSDVQPEDAAVYFCAATIHFSAYEECQAYEYHYWGQGTQVTVSS[human IgG1 Fc with changes not written out]
For B4, the OD450 in assay [1] is 2.61; in assay [2], 3.33; in assay [3] it was 0.48; in assay [4] it was 3.43; in assay [5] it was 0.1; in [6], 0.06. This molecule returned an OD450 in assay [7] of 0.07. Moreover, the concentration for a half-maximal effect (EC50) in assay [8] came to 12.1 nM; in assay [9], 5.57 nM. Besides, the “Max MFI” value in assay [8] came out at 6780; in [9], 1140.

B5: NB147-137 VHH-hFc (Fc fusion)
chain: EVQVVESGGGLVQPGGSLRLSCAASGFTLDYHAIGWFRQAPGKEREGVSCISSSGGRTNYADSVKGRFTISRDNAKNTVYLQMNSLKPEDTAVYYCAAEIFDSAWYCPLSRYDMDYWGKGTLVTVSS[human IgG1 Fc with changes not written out]
For the molecule B5, the OD450 was 2.7 in assay [1]; 2.91 in [2]; 1.06 in assay [3]; 3.14 in assay [4]; 0.17 in assay [5]; 0.08 in [6]. The molecule further returned an OD450 in [7] of 0.05. For the same molecule, the values for the half-maximal effective concentration (EC50) in [8] and in assay [9] were 4.75 nM and 1.13 nM, respectively. In addition, the figures for the “Max MFI” value in assay [8] and in assay [9] were 4920 and 1060, respectively.

B6: NB147-36 VHH-hFc (Fc fusion)
chain: QLQLVESGGGLVQPGGSLRLSCAASGFTLDYHAIGWFRQAPGKEREGVSCISSSGGRINYADSVKGRFTISRDMTKNTVYLELNSLKPEDTAIYYCAAEIFDSSWYCPLSRNNMNYWGKGTLVAVSS[human IgG1 Fc with changes not written out]
As to B6, the OD450 in assay [1] amounted to 2.71; in assay [2] it was 2.92; in assay [3] it was 1.18; in [4], 2.91; in [5] it was 0.19; in assay [6], 0.07. In assay [7], the OD450 stood at 0.05. Besides, the EC50 turned out to be 5.35 nM in assay [8] and 2.36 nM in [9]. Moreover, the entries for the “Max MFI” value in assay [8] and in [9] were 4950 and 1020, respectively.

B7: NB147-102 VHH-hFc (Fc fusion)
chain: QLQLVESGGGLVQPGGSLRLSCSASGRTFNNYVMAWFRQAAGKEREFVANINTSGGRTTYTDSVKDRFTISRDNAKNTMYIQMNNLKAEDTAVYYCAARILYNSDNSDYRKYYYWGQGTQVTVSS[human IgG1 Fc with changes not written out]
As to B7, the OD450 amounted to 2.73 in [1]; 3 in assay [2]; 1.17 in [3]; 3.03 in assay [4]; 0.2 in assay [5]; 0.06 in [6]. The molecule also yielded an OD450 in [7] of 0.05. The figures for the half-maximal effective concentration (EC50) in assay [8] and in assay [9] were 1.81 nM and 0.92 nM, respectively. Besides, the entries for the “Max MFI” value in assay [8] and in assay [9] were 7490 and 1580, respectively.

B8: NB147-161 VHH-hFc (Fc fusion)
chain: QLQLVESGGGWVQAGGSLRLSCAASGFTLDYYAIGWFRQAPGKEREGVSCISSSGGRSNYADSVKGRFTISRDNAKNTVYLQMNSLKIEDTGVYYCAAVILDDSWQCGYYYNMDYWGKGTLVTVSS[human IgG1 Fc with changes not written out]
As for B8, the OD450 in assay [1] stood at 2.34; in assay [2], 2.73; in assay [3], 0.74; in assay [4], 2.95; in assay [5], 0.12; in assay [6] it was 0.06. In assay [7], this molecule gave an OD450 of 0.05. In addition, the EC50 in assay [8] turned out to be 5.5 nM; in assay [9], 3.11 nM. For the same molecule, the “Max MFI” value in assay [8] stood at 4410; in assay [9] it was 638.

B9: Tab094 (FRP5 ScFv-human IgG1 Fc) (Fc fusion)
chain: QVQLQQSGPELKKPGETVKISCKASGYPFTNYGMNWVKQAPGQGLKWMGWINTSTGESTFADDFKGRFDFSLETSANTAYLQINNLKSEDMATYFCARWEVYHGYVPYWGQGTTVTVSSGGGGSGGGGSGGGGSDIQLTQSHKFLSTSVGDRVSITCKASQDVYNAVAWYQQKPGQSPKLLIYSASSRYTGVPSRFTGSGSGPDFTFTISSVQAEDLAVYFCQQHFRTPFTFGSGTKLEIK[human IgG1 Fc with changes not written out]
notes: scFv-Fc control antibody; also called Tab94; FRP5 ScFv-hFc
B9: the OD450 in assay [1] was 2.94; in [2] it was 3.34; in assay [3] it was 0.82; in [4] it was 3.43; in assay [5], 0.12; in assay [6] it was 0.06. For the same molecule, in [7], the OD450 stood at 0.05. Also, the EC50 in assay [8] turned out to be 4.77 nM; in assay [9], 4.83 nM. Also, the entries for the “Max MFI” value in [8] and in assay [9] were 8780 and 1660, respectively.

B10: NB147-110 VHH-hFc (Fc fusion)
chain: EVQVVESGGGLVQPGGSLRLSCTASGHTLDYYAIGWFRQAPGKEREGVSCITSTGTITNYADSVKGRFTISRDNAKNTVYLQMNSLKPEDTAVYYCAVLRGSYCRSNTFDAWGQGTLVTVSS[human IgG1 Fc with changes not written out]
In the case of B10, the OD450 was found to be 2.83 in assay [1]; 2.9 in assay [2]; 0.79 in assay [3]; 3.05 in assay [4]; 0.14 in assay [5]; 0.06 in [6]. Further, the OD450 in [7] amounted to 0.05. Further, the EC50 in [8] is 2.7 nM; in [9], 1.04 nM. In addition, the entries for the “Max MFI” value in assay [8] and in [9] were 7790 and 1360, respectively.
